Tests used:
[1] = target: T1, human PTK-7 on cells (OV90-PTK-7, NCI-H446, OVCAR-3) (human, UniProt Q13308 31-1070); assay: cell-based or functional assay
T1 sequence: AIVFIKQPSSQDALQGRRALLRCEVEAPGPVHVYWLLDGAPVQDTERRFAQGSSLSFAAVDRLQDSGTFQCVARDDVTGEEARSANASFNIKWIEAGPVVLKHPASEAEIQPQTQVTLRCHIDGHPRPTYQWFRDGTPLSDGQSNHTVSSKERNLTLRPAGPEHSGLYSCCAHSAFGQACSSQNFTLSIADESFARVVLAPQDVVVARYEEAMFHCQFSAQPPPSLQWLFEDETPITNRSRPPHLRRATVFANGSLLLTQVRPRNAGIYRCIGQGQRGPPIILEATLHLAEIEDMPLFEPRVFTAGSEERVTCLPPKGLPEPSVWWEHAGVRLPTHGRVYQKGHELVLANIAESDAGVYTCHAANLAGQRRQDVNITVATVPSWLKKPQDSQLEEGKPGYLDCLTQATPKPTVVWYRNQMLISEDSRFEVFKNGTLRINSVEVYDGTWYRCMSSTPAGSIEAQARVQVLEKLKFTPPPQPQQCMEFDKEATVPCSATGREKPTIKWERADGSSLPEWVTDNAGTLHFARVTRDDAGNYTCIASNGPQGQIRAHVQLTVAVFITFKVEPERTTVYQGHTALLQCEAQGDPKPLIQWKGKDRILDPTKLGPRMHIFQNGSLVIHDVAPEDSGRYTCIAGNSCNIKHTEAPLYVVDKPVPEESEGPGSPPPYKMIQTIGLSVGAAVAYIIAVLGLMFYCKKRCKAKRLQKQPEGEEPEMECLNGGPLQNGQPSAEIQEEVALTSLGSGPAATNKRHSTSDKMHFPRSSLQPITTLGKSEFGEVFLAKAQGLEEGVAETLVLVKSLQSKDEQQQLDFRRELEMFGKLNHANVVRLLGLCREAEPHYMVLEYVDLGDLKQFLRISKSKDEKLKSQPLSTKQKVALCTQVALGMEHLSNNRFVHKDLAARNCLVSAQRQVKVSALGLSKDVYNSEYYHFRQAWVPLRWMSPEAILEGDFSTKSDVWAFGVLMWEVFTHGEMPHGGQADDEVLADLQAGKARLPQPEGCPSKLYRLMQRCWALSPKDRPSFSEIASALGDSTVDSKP

[2] = target: T2, recombinant human PTK7 (Acro Biosystems Cat. No. PT7-H52H3) (human, UniProt Q13308 31-704); assay: SPR, Biacore 8K+, ADC captured by anti-human Fc, human PTK7 as analyte, 37 C, 1:1 model
T2 construct: Bought recombinant protein; also called human PTK7 analyte
T2 sequence: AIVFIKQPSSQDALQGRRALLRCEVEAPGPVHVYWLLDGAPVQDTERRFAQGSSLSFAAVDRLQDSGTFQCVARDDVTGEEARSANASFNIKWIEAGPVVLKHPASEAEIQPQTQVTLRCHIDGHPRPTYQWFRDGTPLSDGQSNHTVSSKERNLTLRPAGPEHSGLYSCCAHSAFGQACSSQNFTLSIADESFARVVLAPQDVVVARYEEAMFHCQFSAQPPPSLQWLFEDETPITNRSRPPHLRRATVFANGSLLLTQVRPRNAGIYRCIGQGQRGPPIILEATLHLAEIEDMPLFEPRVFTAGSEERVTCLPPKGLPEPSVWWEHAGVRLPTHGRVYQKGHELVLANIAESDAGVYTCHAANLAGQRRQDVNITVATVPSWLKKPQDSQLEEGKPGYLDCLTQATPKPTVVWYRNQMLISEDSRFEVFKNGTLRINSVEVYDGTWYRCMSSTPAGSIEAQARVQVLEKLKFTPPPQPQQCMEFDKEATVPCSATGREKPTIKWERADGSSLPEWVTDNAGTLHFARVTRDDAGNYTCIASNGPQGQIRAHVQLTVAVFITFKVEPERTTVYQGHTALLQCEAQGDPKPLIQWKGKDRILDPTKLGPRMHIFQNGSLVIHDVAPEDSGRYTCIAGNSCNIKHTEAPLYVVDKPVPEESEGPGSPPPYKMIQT
Procedure: A Biacore 8K+ instrument (Cytiva, Marlborough, MA) was used to determine kinetics and affinity parameters for the binding interactions of ADCs binding to recombinant human PTK7 (Acro Biosystems Cat. No. PT7-H52H3, Newark, DE).
In each analysis cycle, a different ADC was captured on flow cell 2 of each channel by injecting a 5 μg/mL solution at 10 μL/min for 2 minutes. After capture, the same analyte was injected on flow cells 1 and 2 in all 8 channels for 2 minutes at 30 μL/min and dissociation was monitored for 10 minutes. After dissociation, all surfaces were regenerated with three consecutive 1-minute injections of 75 mM phosphoric acid at 10 μL/min. ADC capture and analyte cycles were repeated to obtain human PTK7 analyte binding of each ADC at analyte concentrations of 0, 2.47, 7.41, 22.2, 66.7, 200, and 600 nMs.
Sensorgram data were reference subtracted and blank subtracted, then globally fit with the default 1:1 binding model in Biacore Insight Evaluation Software v3.0.12.15655, as shown in Table 4.

B1: Ab2-PSAR10-VA-exatecan (other)
heavy: QVQLQESGPGLVKPSETLSLTCTVSGGSISTYYWSWIRQPAGKGLEWIGRIYTSGLTNYNPSLKSRVTMSVDTSKNQFSLKLSSVTAADTAVYYCARDPHYYDGSGFDYWGQGTLVTVSSASTKGPSVFPLAPSSKSTSGGTAALGCLVKDYFPEPVTVSWNSGALTSGVHTFPAVLQSSGLYSLSSVVTVPSSSLGTQTYICNVNHKPSNTKVDKRVEPKSCDKTHTCPPCPAPEAAGGPSVFLFPPKPKDTLMISRTPEVTCVVVSVSHEDPEVKFNWYVDGVEVHNAKTKPREEQYNSTYRVVSVLTVLHQDWLNGKEYKCKVSNKALPAPIEKTISKAKGQPREPQVYTLPPSREEMTKNQVSLTCLVKGFYPSDIAVEWESNGQPENNYKTTPPVLDSDGSFFLYSKLTVDKSRWQQGNVFSCSVMHEALHNHYTQKSLSLSPGK
light: [sequence of about 100 residues omitted][sequence of about 120 residues omitted]
modifications: PSAR10-VA-exatecan linker-payload (Formula XV) on cysteine thiols after full reduction of the antibody (DAR 8 procedure); positions not stated for this ADC
notes: Antibody-drug conjugate of Ab2; also called Ab2-VA-Exatecan
Cytotoxicity IC50, OVCAR-3 cells (CellTiter-Glo, 7 days) [1]: 4.84 nM | Kd [2]: 74.2 nM | koff [2]: 0.0134 s⁻¹ | kon [2]: 181000 M⁻¹ s⁻¹
